Where “and” joins values, the source holds several entries; their conditions need not be identical. Equal entries are not always repeated. The campaign covered roughly 320,000 compounds. About 200 (0.062%) were called active. Inconclusive means that the source gave no clear call. Such entries were picked first, then a sample of the others. The call rests on the fitted dose curve; in most records, active means well fitted activation curve with a large enough effect; inconclusive means small, poorly fitted or top-dose-only effect; inactive means no such curve, though single readings can be large or run the other way. Potencies beside an inconclusive call are fits to weak or partial responses and may not hold up.
Assay: qHTS assay for re-activators of p53 using a Luc reporter; further: nearly all actives have a fitted effect of over 45% in size; on activity change, positive = activation: % of control where 0% means no effect
Settings: H1299 p53-A138V BP100-luciferase reporter, luminescence, 24 h; series mostly up to 92.2 µM; activity change, positive = activation: at the top concentration
Outline: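 p53-null H1299 cells stably carrying temperature-sensitive p53-A138V and a BP100-luciferase reporter were pinned with compounds (4-point, 1:5 series) and held 24 hrs at 37 deg C. Luminescence was read 10 min after detection reagent.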
In the case of `Cc1ccc(-n2[nH]c(C)c(/C=N/NC(=O)c3ccc(O)cc3O)c2=O)cc1`, the Potency is reported as inconclusive: 44.7 µM [activator, partial curve, poor fit]. With `O=C(Nc1ccc(Cl)cc1)C1CCCN(c2ncnc3c2nc2n3CCCCC2)C1` (stereo unspecified) the Potency was inconclusive: 79.4 µM [activator, single point]. In the case of `CCCCNC(=O)OCC(CC)NC(=O)OC(C)C` (stereo unspecified), the “activity change, positive = activation” value is reported as inactive: -11.3%. With `O=C(c1ccc(F)cc1)c1ccc(N2CCCC2)cc1` the Potency was inconclusive: 50.1 µM [activator, partial curve, poor fit]. In the case of `CC1CCN(C(=O)CSCc2ccc(Cl)cc2)CC1`, the Potency is reported as inconclusive: 2.51 µM [activator, full curve, poor fit]. For `c1ccc(-n2ncc3c2ncn2nc(-c4ccco4)nc32)cc1`, the Potency was inconclusive: 6.31 µM [activator, partial curve, poor fit]. For `CC1CCN(C(=O)CCNC(=O)c2ccccc2)CC1`, the “activity change, positive = activation” value was inactive: 19.5%. With `COc1cccc(OCc2cc(C(=O)N3CCNC(=O)C3Cc3ccccc3)no2)c1` (stereo unspecified) the Potency was inconclusive: 35.5 µM [activator, partial curve, poor fit]. In the case of `O=C(OCC1CC(c2ccccc2)=NO1)c1ccc(Br)cc1` (stereo unspecified), the Potency is reported as inconclusive: 44.7 µM [activator, partial curve, poor fit]. In the case of `C=C(C)CNC(=S)N=Nc1c(O)[nH]c2ccc([N+](=O)[O-])cc12`, the “activity change, positive = activation” value is reported as inactive: -0.63%. For `CCOC(=O)c1c(C)[nH]c(C(=O)N/N=C/c2ccc(OC)c(OC)c2)c1C`, the “activity change, positive = activation” value was inactive: -5.02%. In the case of `NC(=O)CCCn1c(C(=O)c2ccc(Cl)cc2)c2ccc([N+](=O)[O-])cc2[n+]1[O-]`, the Potency is reported as inconclusive: 70.8 µM [activator, single point]. For `O=[N+]([O-])c1ccccc1S(=O)(=O)NCCC1=CCCCC1`, the “activity change, positive = activation” value was inactive: 11%. In the case of `CCn1cc(C(=O)O)c(=O)c2cnc(N3CCN(C(=S)Nc4ccc(F)cc4)CC3)nc21`, the “activity change, positive = activation” value is reported as inactive: 5.8%. For `Cc1cc(C(=O)COC(=O)c2cc(Cl)ccc2N)c(C)n1Cc1ccco1`, the Potency was inconclusive: 79.4 µM [activator, partial curve, poor fit]. With `Cc1cc(N/C=C\c2nnnn2-c2ccccc2)no1` the Potency was inconclusive: 28.2 µM [activator, partial curve, poor fit]. For `CSc1nc2n(n1)C(c1ccccn1)C1=C(CC(C)(C)CC1=O)N2` (stereo unspecified), the “activity change, positive = activation” value was inactive: 12.4%. With `CCCCc1nc2cc(C(=O)N3CCCCC3C(=O)OC)ccc2o1` (stereo unspecified) the Potency was inconclusive: 56.2 µM [activator, partial curve, poor fit]. In the case of `O=C(COC(=O)C1COc2ccccc2O1)NC(=O)Nc1ccc2c(c1)OCCO2` (stereo unspecified), the Potency is reported as inconclusive: 11.2 µM [activator, full curve, poor fit]. With `CC1CCCCN1C(=O)CSc1nnc(-c2ccccc2F)o1` (stereo unspecified) the Potency was inconclusive: 10 µM [activator, partial curve, poor fit]. With `CC1=CC(C)=Nc2ccc(C)cc2N1` the Potency was inconclusive: 11.2 µM [activator, partial curve, poor fit] and inconclusive: 11.2 µM [activator, full curve]. In the case of `Cc1n[nH]c(=O)n1-c1ccc(OCc2ccccc2)cc1`, the “activity change, positive = activation” value is reported as inactive: 4.36%. With `O=C(/C=N/O)NCc1cccnc1` the Potency was inconclusive: 22.4 µM [activator, single point]. With `O=C(O)c1ccc(N2Cc3ccccc3C2)cc1O` the “activity change, positive = activation” value was inactive: 26.3%. In the case of `O=[N+]([O-])c1ccc2nc(N3CCCC3)sc2c1`, the Potency is reported as inconclusive: 11.2 µM [activator, partial curve, poor fit]. With `CC(C)c1ccc(NC(=O)c2snc3ccc(Cl)cc23)cc1` the Potency was inconclusive: 10 µM [activator, partial curve, poor fit]. In the case of `S=C(Nc1ccc(Br)cc1)NC1CCCCC1`, the Potency is reported as inconclusive: 56.2 µM [activator, partial curve, poor fit]. In the case of `CC(C)OC(=O)c1cccc(-c2ccc(C=O)o2)c1`, the Potency is reported as inconclusive: 2.24 µM [activator, full curve, poor fit]. For `CN(C)c1ccc(/C=N\NC(=S)SCN2C(=O)C3CCC(C)(C2=O)C3(C)C)cc1` (stereo unspecified), the Potency was inconclusive: 44.7 µM [activator, partial curve, poor fit]. For `CCOC(=O)c1c(N)sc2c(O)c(Br)ccc12`, the Potency was inconclusive: 14.1 µM [activator, full curve]. With `O=C(O)c1cnn(-c2nc(-c3ccc(Cl)cc3)cs2)c1C(F)(F)F` the Potency was inconclusive: 12.6 µM [activator, partial curve, poor fit]. In the case of `Cn1c(=O)c2ncn(CC(=O)Nc3cccc(-c4nc5ccccc5s4)c3)c2n(C)c1=O`, the Potency is reported as inconclusive: 56.2 µM [activator, partial curve, poor fit]. In the case of `COc1ccc2cc3cc(C(=O)NC4CC4)sc3nc2c1`, the Potency is reported as inconclusive: 79.4 µM [activator, partial curve, poor fit]. With `N#Cc1ccc(/C=N/NC(=O)c2ccccc2F)cc1` the Potency was inconclusive: 10 µM [activator, full curve, poor fit]. With `CN(C)c1ccc(CNn2cnnc2SCc2ccccc2F)cc1` the Potency was inconclusive: 10 µM [activator, single point]. For `CC(C)c1nnc(NC(=O)c2ccc(N3C(=O)CCC3=O)cc2)s1`, the Potency was inconclusive: 12.6 µM [activator, full curve, poor fit]. In the case of `CCc1ccc(NC(=S)NNC(=O)c2ccccc2OC(F)F)cc1`, the Potency is reported as inconclusive: 70.8 µM [activator, single point]. For `O=C(COn1nnc2ccc(C(F)(F)F)cc21)Nc1nnc(-c2ccccc2)o1`, the “activity change, positive = activation” value was inactive: 3.43%. In the case of `Oc1ccc(-c2cccc(-c3ccc(O)cc3)n2)cc1`, the Potency is reported as inconclusive: 12.6 µM [activator, partial curve, poor fit]. In the case of `Cc1ccc(/C=N/NC(=O)c2nn(C)cc2Cl)cc1`, the Potency is reported as inconclusive: 50.1 µM [activator, partial curve, poor fit]. For `O=C(CCN1C(=O)S/C(=C/c2ccccc2)C1=O)Nc1ccc(C(=O)O)c(O)c1`, the Potency was inconclusive: 50.1 µM [activator, partial curve, poor fit]. With `CNc1nc(C)cc(C)c1S(=O)(=O)c1ccc(Cl)cc1` the “activity change, positive = activation” value was inactive: -3.53%. In the case of `CCCCCC1CCC(C(=O)N2CCOCC2)CC1` (stereo unspecified), the “activity change, positive = activation” value is reported as inactive: 9.83%. With `CCN=C1NN=C(c2ccc(C)cc2)CS1` the Potency was inconclusive: 35.5 µM [activator, single point]. In the case of `Cc1ccc(-c2nn(-c3ccccc3)cc2CN(C)C(=O)CCC(=O)O)cc1C`, the “activity change, positive = activation” value is reported as inactive: 0.475%. For `CC(=O)c1cccc(NC(=O)c2cc(C(C)C)on2)c1`, the Potency was inconclusive: 2.82 µM [activator, full curve, poor fit]. In the case of `O=C(O)c1ccccc1OCc1nc2ccccc2s1`, the Potency is reported as inconclusive: 10 µM [activator, partial curve, poor fit]. With `Cc1ccc(-c2nc(NC(=O)CSc3nnnn3-c3ccccc3)ns2)cc1` the Potency was inconclusive: 11.2 µM [activator, full curve, poor fit]. For `COc1ccc(C(=O)NC2CCc3ccccc32)cc1OC1CCN(C(C)C)CC1` (stereo unspecified), the Potency was inconclusive: 44.7 µM [activator, partial curve, poor fit]. In the case of `Cc1cc2[nH]c3ccccc3c2c(C)n1`, the Potency is reported as inconclusive: 50.1 µM [activator, partial curve, poor fit]. With `COc1ccc(-n2c(SCC(=O)Nc3cccc4ccccc34)nc(O)cc2=O)cc1` the “activity change, positive = activation” value was inactive: -0.0021%. With `COc1ccc(NC(=O)c2ccc(Br)o2)cc1` the Potency was inconclusive: 56.2 µM [activator, partial curve, poor fit]. For `Cc1occc1C(=O)Nc1ccc2ccccc2c1`, the Potency was inconclusive: 31.6 µM [activator, partial curve, poor fit]. With `CCOc1ccccc1C(=O)NC(C(=O)Nc1ccccc1N1CCOCC1)C(C)C` (stereo unspecified) the Potency was inconclusive: 10 µM [activator, full curve, poor fit]. With `O=C(N/N=C/c1c(F)cccc1Cl)c1cc(C2CC2)[nH]n1` the Potency was inconclusive: 44.7 µM [activator, partial curve, poor fit]. For `Cc1cc(C)c(NC(=O)/C(C#N)=C/c2ccc(OCc3ccc(F)cc3)cc2)c(C)c1`, the Potency was inconclusive: 2.51 µM [activator, full curve, poor fit]. With `O=C(CSc1ccc(S(=O)(=O)N2CCOCC2)cn1)Nc1ccc(F)c(F)c1` the Potency was inconclusive: 11.2 µM [activator, partial curve, poor fit]. In the case of `CCOC(=O)C1CCCN(S(=O)(=O)c2cc(C(=O)OC)n(C)c2)C1` (stereo unspecified), the “activity change, positive = activation” value is reported as inactive: 7.78%. For `O=C(NCCc1ccccc1)C(=O)Nc1ccc([N+](=O)[O-])cc1`, the Potency was inconclusive: 39.8 µM [activator, partial curve, poor fit]. In the case of `CCOC(=O)CNc1c(-c2ccc(O)cc2)nc2ccccn12`, the Potency is reported as inconclusive: 70.8 µM [activator, single point]. With `O=C(CSc1nnc(-c2ccco2)o1)c1ccccc1` the Potency was inconclusive: 5.01 µM [activator, full curve, poor fit]. For `Cc1cc(=S)[nH]c2c(C)cccc12`, the “activity change, positive = activation” value was inactive: -2.16%. With `Cn1c(NC(=O)/C=C/c2ccccc2)cc(=O)n(C)c1=O` the Potency was inconclusive: 7.08 µM [activator, full curve, poor fit]. With `c1ccc(-c2sc3ccccc3c2-c2ccc(OCCN3CCOCC3)cc2)cc1` the “activity change, positive = activation” value was inactive: -3.24%. In the case of `Cc1cccc(OCCCn2c(=O)sc3ccccc32)c1`, the Potency is reported as inconclusive: 44.7 µM [activator, partial curve, poor fit]. For `O=C(Nc1cccc(Cl)c1)c1ccc2c(c1)OCCO2`, the Potency was inconclusive: 11.2 µM [activator, full curve, poor fit].
Potency means the concentration at half of the fitted maximal effect; tags describe the fitted curve by direction and shape.
